Measurements taken from PubChem BioAssay AID2675 (National Center for Advancing Translational Sciences (NCATS), 2010).
About 100 (0.036%) of roughly 280,000 compounds were called active. This list was built around the results that the source calls inconclusive (neither active nor inactive); the mix of calls is not that of the screen. The call rests on the fitted dose curve; in most records, active means well fitted inhibition curve with a large enough effect in the signal ratio, with a control signal flat (not every such curve was filed as active); inconclusive means small, poorly fitted or top-dose-only effect, or effect the other way, or a change in a side signal; inactive means no such curve, though single readings can be large or run the other way; the % refers to the signal ratio. Where the call is inconclusive, the potency comes from a doubtful curve fit. A note “side channel” means that the fit belongs to a control or component signal, not to the main read-out.

target: Muscleblind-like protein 1 (Homo sapiens) (UniProt Q9NR56); experiment: qHTS Assay for Inhibitors of MBNL1-poly(CUG) RNA binding; settings: TR-FRET MBNL1-His/biotin-(CUG)12 binding, 665/545 ratio; activity change, negative = inhibition: at 57.5 µM (top of the series)
In short: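 MBNL1-His + Biotin-(CUG)12, cpd titration 92 nM–58 uM; Tb anti-His Ab 0.055 ng/ul, SA-XL665 5 nM (final); 60 min RT; ratiometric 665/545 nm, Ex 340 nm; normalized to buffer and full-complex controls.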
On the % scale 0 is the no-effect control and ±100 the full control effect; potency means the concentration at half of the fitted maximal effect; tags describe the fitted curve by direction and shape or compound fluorescence and quenching.

Sequence of UniProt Q9NR56 (Q9NR56 whole entry, looked up): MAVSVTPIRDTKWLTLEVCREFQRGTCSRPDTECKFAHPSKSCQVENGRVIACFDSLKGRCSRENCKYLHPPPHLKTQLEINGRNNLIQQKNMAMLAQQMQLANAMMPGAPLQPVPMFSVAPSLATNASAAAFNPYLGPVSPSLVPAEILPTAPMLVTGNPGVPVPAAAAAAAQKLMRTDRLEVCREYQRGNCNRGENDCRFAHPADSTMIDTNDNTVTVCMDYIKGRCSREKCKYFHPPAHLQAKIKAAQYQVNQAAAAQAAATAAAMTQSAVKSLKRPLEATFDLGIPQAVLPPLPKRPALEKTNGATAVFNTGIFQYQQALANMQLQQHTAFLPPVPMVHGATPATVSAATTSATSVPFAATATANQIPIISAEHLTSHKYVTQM

SMILES | Potency | activity change, negative = inhibition
CCOC(=O)CC(NS(=O)(=O)c1ccc(OC)c(OC)c1)c1cccc([N+](=O)[O-])c1 (stereo not drawn) | inconclusive: 12.6 µM [quencher, side channel, partial curve] | –
Cc1ccc2nsnc2c1S(=O)(=O)N1CCCC1 | inconclusive: 15.8 µM [quencher, partial curve] | –
CCc1sc(/C=C(/C#N)C(N)=S)cc1[N+](=O)[O-] | inconclusive: 15.8 µM [quencher, side channel, partial curve] | –
C/C(CC(=O)Nc1ccc([N+](=O)[O-])cc1)=N/NC(=O)C1CC12CCC2 (stereo not drawn) | inconclusive: 12.6 µM [quencher, side channel, partial curve] | –
Cc1cccc(OCCN2C(=O)C(=O)c3cc(C)ccc32)c1 | inconclusive: 15.8 µM [quencher, side channel, single point] | –
O=C(OCCCN=C1NS(=O)(=O)c2ccccc21)c1ccc([N+](=O)[O-])cc1 | inconclusive: 2.51 µM [quencher, side channel, full curve] | –
CN(c1ccc(C(=O)Nc2ccc3c(c2)n(C)c(=O)n3C)cc1)S(C)(=O)=O | – | inactive: -0.55%
CC(C)C[C@H](N)c1nnc(SCc2ccc(Cl)cc2)o1 | – | inactive: -17.2%
COc1ccc(NC(=O)CN(C)CC(=O)Nc2ccc(N3CCOCC3)cc2)c([N+](=O)[O-])c1 | inconclusive: 3.55 µM [quencher, side channel, full curve] | –
CCN(CC)C(=O)COc1c(-c2ccco2)oc2ccccc2c1=O | inconclusive: 20 µM [quencher, side channel, partial curve] | –
COCCn1c(N)c(Sc2ccc([N+](=O)[O-])cc2)c(=O)[nH]c1=O | inconclusive: 11.2 µM [quencher, side channel, partial curve] | –
COCCn1c(=N)c(C(=O)NCc2ccco2)cc2c(=O)n3cc(C)ccc3nc21 | inconclusive: 6.31 µM [quencher, side channel, partial curve] | –
NC(=O)c1ccccc1OCC(=O)NS(=O)(=O)c1ccccc1 | – | inactive: -11.7%
O=C1NC(=O)/C(=C\c2ccc(N3CCOCC3)o2)N1 | inconclusive: 20 µM [quencher, partial curve] | –
O=C(COC(=O)/C=C/c1ccccc1[N+](=O)[O-])NC1CCS(=O)(=O)C1 (stereo not drawn) | inconclusive: 14.1 µM [quencher, side channel, partial curve] | –
O=C(Nc1ccc(Cl)c(Cl)c1)Nn1cnnc1 | active: 7.94 µM | –
Cc1ccccc1-n1c(=O)cc(N2CCN(C(=O)c3ccco3)CC2)[nH]c1=O | inconclusive: 100 µM [inhibitor, single point] | –
CC(=O)N1C(=O)NC2=C(C(=O)CCC2)C1c1cccc([N+](=O)[O-])c1 (stereo not drawn) | inconclusive: 14.1 µM [quencher, side channel, partial curve] | –
O=C(Nc1ccc(C(=O)N2CCOCC2)cc1)c1ccc([N+](=O)[O-])cc1 | inconclusive: 10 µM [quencher, side channel, partial curve] | –

SMILES | Potency | activity change, negative = inhibition
Nc1ccccc1SCC(=O)Nc1cccc2ccccc12 | inconclusive: 35.5 µM [quencher, side channel, single point] | –
CC(=O)Nc1sc(NC(=O)c2ccc([N+](=O)[O-])cc2)nc1-c1cccs1 | inconclusive: 2.24 µM [quencher, side channel, full curve, poor fit] | –
CC(C)N1CCN(S(=O)(=O)c2ccccc2)CC1 | – | inactive: 0.445%
CN(CCO)S(=O)(=O)c1ccc2c(c1)C(=NO)c1cc(S(=O)(=O)N(C)CCO)ccc1-2 | inconclusive: 15.8 µM [quencher, side channel, partial curve] | –
Oc1ccc(-c2nc(=S)[nH][nH]2)cc1 | inconclusive: 79.4 µM [inhibitor, partial curve, poor fit] | –
CC(C(=O)N(C)C1CCS(=O)(=O)C1)N1C(=O)/C(=C/c2ccco2)SC1=S (stereo not drawn) | inconclusive: 12.6 µM [quencher, side channel, partial curve] | –
CC1(C(=O)NC(=S)N(CCC#N)Cc2cccnc2)CC1(Cl)Cl (stereo not drawn) | – | inactive: 0.209%
CCc1nnc(NS(=O)(=O)c2ccc(N3C(=O)c4ccccc4C3=O)cc2)s1 | inconclusive: 28.2 µM [quencher, single point] | –
COC(=O)CCC(=O)OC1(C)C(=O)C=C2C=C(C3CC3)N(CCc3c[nH]c4ccccc34)C=C2C1=O (stereo not drawn) | inconclusive: 17.8 µM [quencher, side channel, partial curve] | –
CCCCC(=O)N/N=C/c1cc([N+](=O)[O-])ccc1N1CCOCC1 | inconclusive: 3.55 µM [quencher, side channel, single point] | –
COc1ccc2nc(SCc3ccccc3)nc(C)c2c1 | inconclusive: 0.1 µM [fluorescent, side channel, full curve, poor fit] | –
O=C(CSc1nc2ccccc2[nH]1)N=Nc1c(O)[nH]c2ccccc12 | inconclusive: 25.1 µM [quencher, side channel, single point] | –
Cc1ccc(/C=N\NC(=O)C2COc3cc4ccccc4cc3O2)o1 (stereo not drawn) | inconclusive: 28.2 µM [quencher, side channel, single point] | –
NCCN=C1NS(=O)(=O)c2ccccc21 | inconclusive: 79.4 µM [inhibitor, single point] | –
Cc1ccccc1C(=O)Nc1ccnn1C1CCN(C(C)Cc2ccccc2F)CC1 (stereo not drawn) | – | inactive: -3.32%
O=C(/C=C/c1ccc(Cl)cc1)NCc1ccncc1 | inconclusive: 17.8 µM [quencher, side channel, single point] | –
O=c1cccc(-c2ccc(Br)cc2)o1 | inconclusive: 15.8 µM [quencher, side channel, partial curve] | –
CC(=O)Nc1ccc(N2CCCC(C)C2)c([N+](=O)[O-])c1 (stereo not drawn) | inconclusive: 14.1 µM [quencher, side channel, partial curve] | –
Cc1ccc(-n2c3nc(=O)[nH]c(=O)c-3cc3c(C)nn(-c4ccccc4)c32)c(C)c1 | inconclusive: 0.631 µM [quencher, side channel, full curve, poor fit] | –
